# Reference: PMC4336329 (PLoS ONE, 2015)
# Screen size: about 310,000 compounds; about 2,200 (0.71%) showed an effect of 50% or more. The effect is printed as a negative number. The list shows a part of the results.
# Target: human ether-à-go-go-related gene (hERG) potassium channel (human, UniProt Q12809)
# Test: primary screen, population patch clamp on CHO cells stably expressing hERG
# Sequence of human ether-à-go-go-related gene (hERG) potassium channel (Q12809 whole entry, looked up): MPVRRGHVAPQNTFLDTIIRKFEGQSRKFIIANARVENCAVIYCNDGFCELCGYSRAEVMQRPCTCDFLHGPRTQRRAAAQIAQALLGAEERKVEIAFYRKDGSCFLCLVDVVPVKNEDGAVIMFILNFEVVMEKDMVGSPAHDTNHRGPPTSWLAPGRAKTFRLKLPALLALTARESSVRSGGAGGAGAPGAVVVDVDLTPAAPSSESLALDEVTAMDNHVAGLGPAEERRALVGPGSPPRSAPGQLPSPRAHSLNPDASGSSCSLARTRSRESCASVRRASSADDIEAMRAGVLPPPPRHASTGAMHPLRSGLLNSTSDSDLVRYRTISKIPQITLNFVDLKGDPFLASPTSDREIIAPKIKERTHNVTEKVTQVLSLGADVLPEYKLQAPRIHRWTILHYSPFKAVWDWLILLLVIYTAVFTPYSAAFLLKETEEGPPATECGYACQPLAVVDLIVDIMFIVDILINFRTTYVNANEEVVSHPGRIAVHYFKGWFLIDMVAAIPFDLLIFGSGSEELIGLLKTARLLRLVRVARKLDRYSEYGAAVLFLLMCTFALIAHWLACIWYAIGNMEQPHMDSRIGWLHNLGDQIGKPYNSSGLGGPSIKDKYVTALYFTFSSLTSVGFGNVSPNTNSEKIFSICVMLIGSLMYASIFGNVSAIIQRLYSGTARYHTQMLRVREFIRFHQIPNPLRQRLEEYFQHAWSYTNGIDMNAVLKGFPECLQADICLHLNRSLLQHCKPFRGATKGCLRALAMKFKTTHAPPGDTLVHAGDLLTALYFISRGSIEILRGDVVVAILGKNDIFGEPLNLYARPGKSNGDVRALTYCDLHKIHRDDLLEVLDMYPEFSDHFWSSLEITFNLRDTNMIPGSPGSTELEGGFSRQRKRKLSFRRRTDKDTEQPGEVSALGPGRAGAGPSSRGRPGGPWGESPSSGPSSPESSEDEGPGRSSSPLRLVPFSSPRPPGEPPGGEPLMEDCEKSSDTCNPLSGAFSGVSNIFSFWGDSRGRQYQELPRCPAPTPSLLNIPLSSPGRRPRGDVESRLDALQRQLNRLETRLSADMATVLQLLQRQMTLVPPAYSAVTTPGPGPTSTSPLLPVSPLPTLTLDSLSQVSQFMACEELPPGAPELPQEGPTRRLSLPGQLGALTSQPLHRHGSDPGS
row,Compound,"hERG current change (%, negative = inhibition) at 1uM"
1,Cc1cc(NC(=O)c2nn(C)c(C)c2Br)no1,9.71%
2,Cc1ccc2[nH]c(=O)c(CN(Cc3cccs3)Cc3nnnn3CC3CCCO3)cc2c1 (stereo not shown),-0.0725%
3,COc1ccccc1C(=O)NCCC(=O)Nc1ccc(S(=O)(=O)Nc2ncccn2)cc1,2.2%
4,CCCCn1c(-c2ccc(F)c(F)c2)nc2cc3[nH]c(=O)c(C(C)C)nc3cc21,11.3%
5,CCC(Sc1nnnn1C)C(=O)Nc1ccc(C(C)=O)cc1 (stereo not shown),1.87%
6,COc1nc(-c2ccccc2)cc(-c2ccc3c(c2)OCO3)c1C#N,7.64%
7,Cc1nc(SCc2ccc([N+](=O)[O-])cc2)n[nH]1,8.78%
8,CCOc1ccc(NC(=O)Cn2cc(C(=O)c3ccco3)c3ccccc32)cc1,-1.85%
9,COc1ccc(C(=O)OC(C)C(=O)NC2CCCCC2C)cc1S(=O)(=O)N1CCOCC1 (stereo not shown),1.51%
10,CCN(CC)S(=O)(=O)c1cc(C(=O)N=c2sccn2C)ccc1OC,4.59%
11,O=C(NC1CC1)C1CCCN(C(=O)NC2CCCCC2)C1 (stereo not shown),4.83%
12,Cc1ccc(CCC2C3=C(CCCC3=O)OC3=C2C(=O)CCC3)cc1,12.6%
13,Fc1ccc(CNC(=S)NC2CCCCCC2)cc1,11.6%
14,COc1cc(O)c(CCO)c2c1C(=O)C[C@@H](C)O2,-14.3%
15,Cc1csc2ncc(C(=O)NCc3ccco3)c(=O)n12,5.98%
16,CC(C)c1nnc(NC(=O)CCC(=O)NCC2CCCO2)s1 (stereo not shown),5.75%
17,CCn1nnc(NC(=O)c2ccc(-c3ccccc3[N+](=O)[O-])o2)n1,8.96%
18,O=C1NCCN(Cc2ccc(Cl)c(F)c2)C1CC(=O)N1CCc2ccccc2C1 (stereo not shown),3.14%
19,CC(=O)NC1C(=O)N(CCc2ccccc2)c2ccccc21 (stereo not shown),7.87%
20,CC(=O)c1cccc(Oc2cc(NN3CCCCC3)c([N+](=O)[O-])cc2[N+](=O)[O-])c1,12.8%
21,COc1ccc(S(=O)(=O)Nc2ccccc2OC)cc1NC(=O)Cc1cccs1,9.07%
22,C/C(=N\NC(=O)CN(c1ccccc1)S(=O)(=O)c1ccccc1[N+](=O)[O-])C(C)(C)C,0.526%

row,Compound,"hERG current change (%, negative = inhibition) at 1uM"
1,CCOC(=O)c1nc(-c2ccc(OC)c(OC)c2)no1,3.69%
2,CCOC(=O)COc1ccc(/C=C2\NC(=S)N(CC)C2=O)cc1,8.45%
3,O=C(COc1ccc([N+](=O)[O-])cc1)Nc1cc(S(=O)(=O)N2CCCCC2)ccc1N1CCCCC1,12.4%
4,O=C(Cc1ccccc1F)OCC(=O)N1CCN(C(=O)c2ccco2)CC1,-1.25%
5,Cc1cccc(Cn2c(N3CCc4ccccc4C3)nc3c2c(=O)[nH]c(=O)n3C)c1,1.68%
6,CC(C)(C)c1cc(OS(C)(=O)=O)ccc1O,13.3%
7,CCN(C(=O)CN1CCN(c2ccc(OC)cc2)CC1)c1c(N)n(Cc2ccccc2)c(=O)[nH]c1=O,2.57%
8,CCOC(=O)c1cnc(-n2nc(C)cc2C)nc1NNc1cc(C)nc(-c2ccccc2)n1,5.3%
9,Cc1ccc(/C=N/Nc2ccc3ccccc3n2)o1,-7.77%
10,CC(=O)n1cc([C@@H]2C=C(C(=O)O)O[C@H](OCc3ccc(CO)cc3)C2)c2ccccc21,4.15%
11,Cc1ccc2nc(SCC(=O)N3CC(C)OC(C)C3)nc(=O)n2c1 (stereo not shown),4.64%
12,CN1C(=O)/C(=C/c2ccco2)SC1=Nc1cccc(C(=O)O)c1,18%
13,COc1cccc(NS(=O)(=O)c2ccc(OC)c(OC)c2)c1,-0.905%
14,CC1=CC(C)(C)n2c(O)c(N=NC(N)=S)c3c(C)ccc1c32,10.6%
15,O=C(OCc1nc2ccccc2s1)c1cccc(N2C(=O)CCC2=O)c1,17.5%
16,COc1cccc(C(C)NC(=O)Cc2cccs2)c1 (stereo not shown),16%
17,CCOC(=O)C[n+]1c(C)csc1C.[Br-],9.26%
18,Cc1cc(C(F)F)n2ncc(C(=O)NCc3ccccc3C(F)(F)F)c2n1,7.73%
19,CC(C)N1C(=O)S/C(=C\c2ccc(-c3ccc(Cl)c(C(=O)O)c3)o2)C1=O,16.4%
20,CCn1c2ccc(F)cc2c2nnc(SCCN3CCCCC3)nc21,-29.4%
21,O=C(/C=C/c1ccco1)NCCc1ccccc1,8.46%
22,CN1CCN(CC(=O)N2c3ccccc3C(C)(c3ccc(Cl)cc3)CC2(C)C)CC1 (stereo not shown),4.77%

row,Compound,"hERG current change (%, negative = inhibition) at 1uM"
1,COc1ccc(N2CCN(C(=O)CSc3nc4nc(C)cc(C)n4n3)CC2)cc1,-1.83%
2,FC(F)(F)c1ccc(C2[C@H]3CN(Cc4ccc(-c5ccccc5)cc4)[C@H](c4ccccc4)C34CC2(c2ccccc2)C4)cc1 (stereo partly shown),13.8%
3,CC(C)OC(=O)CC1C(=O)NCCN1C(=S)NC(=O)CCc1ccccc1 (stereo not shown),-9.42%
4,COc1ccc(CC(=O)NC2CCN(CC(=O)Nc3ccc4c(c3)OCCO4)CC2)cc1OC,1.54%
5,Cc1nn(-c2ccccc2)c(Cl)c1/C=N/NS(=O)(=O)c1ccc(Br)cc1,2.41%
6,Cc1nnc2n1N=CC=C(c1ccccc1)S2,-13.8%
7,O=C(CCSc1nc(-c2ccco2)cc(C(F)(F)F)n1)N1CCN(c2ccccc2)CC1,8.05%
8,O=C(C1CCC(=O)N1C1CCCC1)N1CCC2(CC1)OCCO2 (stereo not shown),4.31%
9,C=CCn1c(SCC(=O)c2c(N)n(C3CC3)c(=O)[nH]c2=O)nnc1-c1ccoc1C,11%
10,COc1ccc(-c2noc(CCC(=O)NCCc3cccc(C)c3)n2)cc1,10.2%
11,O=C(c1ccccc1)N1CC[NH+](CC(O)COC2CCCCC2)CC1.[Cl-] (stereo not shown),4.46%
12,C=CCn1c(SCC(=O)/C(C#N)=C(\C)N)nc2sc(C)c(C)c2c1=O,-2.05%
13,Clc1ccc(/C=N/Nc2nnc(-c3ncc[nH]3)c3ccccc23)cc1,4.89%
14,CCCCn1c(N)c(N(CC(C)C)C(=O)CC2CCCC2)c(=O)[nH]c1=O,6.57%
15,O=C(CN1CCN(C(=O)CNC(=O)c2ccc3c(c2)OCO3)CC1)Nc1ccc(F)cc1,-4.24%
16,COC(=O)c1ccccc1-n1c(C)nc2ccccc2c1=O,8.62%
17,CCCCN(CC)C(=O)Cc1cn(C)c2ccccc12,9.64%
18,CCN(C(=O)COC(=O)Cc1c[nH]c2ccccc12)c1c(N)n(Cc2ccccc2)c(=O)[nH]c1=O,4.14%
19,CCOc1ccc(/C=C/C(=O)Nc2cccc(C(C)=O)c2)cc1,11.8%
20,CC(C)CC(=O)Nc1ccnc(-c2ccncc2)n1,-7.96%
21,O=C(C1=C(O)C(=O)N(CCCn2ccnc2)C1c1ccccc1)c1ccco1 (stereo not shown),6.79%
22,COc1ccccc1N1CCN(C(=O)CN2C(=O)c3ccccc3S2(=O)=O)CC1,10.9%

row,Compound,"hERG current change (%, negative = inhibition) at 1uM"
1,O=S1(=O)N=C(Oc2cccc3ccccc23)c2ccccc21,11.4%
2,O=C(CCCOc1ccc(Cl)cc1Cl)N1CCc2ccccc2C1,13.3%
3,CC(C)(C)NC(=O)COc1ccc(CNCc2cccs2)cc1.Cl,11.1%
4,Cn1c(=O)c2c(nc(SCCN3CCCCC3)n2Cc2ccccc2)n(C)c1=O,-66%
5,CC(C)(C)C1CCC(=NOC(=O)c2ccc(F)cc2)CC1 (stereo not shown),13.7%
6,O=C(CNc1c(Br)cc(Br)cc1Br)NN=C1CCCCC1,-0.726%
7,COc1ccc(N=C2SCC(c3ccccc3)=NN2C)cc1,7.83%
8,Cc1cc(C)n2c(SCC(=O)Nc3ccc(F)cc3F)nnc2n1,30.5%
9,CNc1c(NS(=O)(=O)c2ccc(C(C)(C)C)cc2)c(=O)oc2ccccc12,6.66%
10,C/C(=N\NC(=O)CCC(=O)Nc1ccc(C)c(C)c1)C1CC1,10.2%
11,Cc1ccc(CNc2nc(N)c([N+](=O)[O-])c(Nc3cccc(F)c3)n2)cc1,1.73%
12,Cc1cc(=O)[nH]c(SCC(=O)c2ccc(O)c(O)c2)n1,17.6%
13,CC1(C)CC(CC(=O)Nc2ccc([N+](=O)[O-])cc2)C(=O)O1 (stereo not shown),-5.96%
14,O=C(CN(C(=O)CSc1nnc(COc2ccccc2)o1)c1ccc(F)cc1)NC1CCCCC1,-13.5%
15,O=C(CSc1nc2ccccc2[nH]1)N/N=C/c1ccncc1,12.3%
16,CC1(C)Cn2c(nnc2-c2ccccc2)S1,18%
17,CC(C)=CC(=O)OCC(=O)NC1CCCc2ccccc21 (stereo not shown),11.4%
18,CCOC(=O)C1(Cc2ccccc2)CCN(Cc2ccc(C)s2)CC1,-2.06%
19,O=C(c1ccc(CS(=O)(=O)c2ccccc2)o1)N1CCN(c2ncccn2)CC1,1.46%
20,COC(C(=O)Nc1ccc(F)c(F)c1)c1ccccc1 (stereo not shown),9.43%
21,Cc1ccc(N2CCN(S(=O)(=O)c3cccs3)CC2C)cc1 (stereo not shown),15.8%
22,O=C(CSc1nnc(NC(=O)c2c(F)cccc2F)s1)Nc1ccc(F)cc1,7.29%
